The record followed here is paper PMC12820563, “FoxP3 forms a head-to-head dimer in vivo and stabilizes its multimerization on adjacent microsatellites”.

The list shows a part of the results.

The target of the experiment is T1, MBP-FoxP1dN (Mus musculus, UniProt P58462 326-579).
T1 sequence: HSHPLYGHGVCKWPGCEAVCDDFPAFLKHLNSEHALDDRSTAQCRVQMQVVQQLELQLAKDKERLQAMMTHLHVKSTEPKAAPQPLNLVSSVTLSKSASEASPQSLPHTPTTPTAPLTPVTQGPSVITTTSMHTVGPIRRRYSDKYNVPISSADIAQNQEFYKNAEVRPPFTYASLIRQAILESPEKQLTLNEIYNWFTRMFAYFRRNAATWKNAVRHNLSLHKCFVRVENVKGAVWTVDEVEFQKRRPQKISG
Briefly: PD-seq (MBP pull-down with sequencing); 20 mM Tris-HCl pH 7.5, 100 mM NaCl, 1.5 mM MgCl2, 0.4 uM protein, 0.1 uM dsDNA library, 30 min, room temperature, amylose pull-down; high values mean tight binding. To be noted: protein: recombinant; tags: His6-MBP; chain copies: 2; dsDNA, one strand shown. The gist of the method: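 Binding is given as reads-per-million enrichment, pull-down over input, with replicates pooled. The bait was an N-terminus-lacking mouse FoxP3 or FoxP1 fragment with a His6-MBP tag, expressed in E. coli and used at 0.4 µM with 0.1 µM Klenow-filled degenerate double-stranded DNA library for 30 min at room temperature in Tris pH 7.5 buffer with NaCl and MgCl2. Amylose resin pull-down with three washes was followed by proteinase K release, PCR barcoding and Illumina sequencing.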
“GATGATTGTTCTCCCAGCTGATGAATTTCGGTAATCGAGTAAACAAATTTTCCTAATCTTTCTGTTCAAGCGCCATCTAC”: the binding signal was 1.38 RPM ratio (pull-down/input).

In the case of “GATGATTGTTCTCCCAGCTGATGAATTCTATTTATCGAGTAAACAAATTTTCCTAATCTTTCTGTTCAAGCGCCATCTAC”, the binding signal is 2.58 RPM ratio (pull-down/input).

Regarding “GATGATTGTTCTCCCAGCTGATGAATTGGGCTGGTCGAGTAAACAAATTTTCCTAATCTTTCTGTTCAAGCGCCATCTAC”, the binding signal is 0.795 RPM ratio (pull-down/input).

“GATGATTGTTCTCCCAGCTGATGAATTGATGTGCTCGAGTAAACAAATTTTCCTAATCTTTCTGTTCAAGCGCCATCTAC”: the binding signal was 1.13 RPM ratio (pull-down/input).

For the sequence “GATGATTGTTCTCCCAGCTGATGAATTAGGCGCTTCGAGTAAACAAATTTTCCTAATCTTTCTGTTCAAGCGCCATCTAC”, the binding signal is 0.907 RPM ratio (pull-down/input).

For “GATGATTGTTCTCCCAGCTGATGAATTATAATGCTCGAGTAAACAAATTTTCCTAATCTTTCTGTTCAAGCGCCATCTAC”, the binding signal was 1.31 RPM ratio (pull-down/input).

Regarding “GATGATTGTTCTCCCAGCTGATGAATTATTCCCTTCGAGTAAACAAATTTTCCTAATCTTTCTGTTCAAGCGCCATCTAC”, the binding signal is 1.01 RPM ratio (pull-down/input).

As to “GATGATTGTTCTCCCAGCTGATGAATTGAACGAATCGAGTAAACAAATTTTCCTAATCTTTCTGTTCAAGCGCCATCTAC”, the binding signal is 0.893 RPM ratio (pull-down/input).

“GATGATTGTTCTCCCAGCTGATGAATTGCCATCTTCGAGTAAACAAATTTTCCTAATCTTTCTGTTCAAGCGCCATCTAC”: the binding signal was 0.967 RPM ratio (pull-down/input).

With “GATGATTGTTCTCCCAGCTGATGAATTACTCCTATCGAGTAAACAAATTTTCCTAATCTTTCTGTTCAAGCGCCATCTAC”, the binding signal was 0.977 RPM ratio (pull-down/input).

“GATGATTGTTCTCCCAGCTGATGAATTCTGTGGGTCGAGTAAACAAATTTTCCTAATCTTTCTGTTCAAGCGCCATCTAC”: the binding signal is 0.836 RPM ratio (pull-down/input).

On to “GATGATTGTTCTCCCAGCTGATGAATTTCCGCGATCGAGTAAACAAATTTTCCTAATCTTTCTGTTCAAGCGCCATCTAC”, for which the binding signal was 0.858 RPM ratio (pull-down/input).

For the sequence “GATGATTGTTCTCCCAGCTGATGAATTTTCTAACTCGAGTAAACAAATTTTCCTAATCTTTCTGTTCAAGCGCCATCTAC”, the binding signal was 0.937 RPM ratio (pull-down/input).

With “GATGATTGTTCTCCCAGCTGATGAATTCAAGATTTCGAGTAAACAAATTTTCCTAATCTTTCTGTTCAAGCGCCATCTAC”, the binding signal was 0.867 RPM ratio (pull-down/input).

For “GATGATTGTTCTCCCAGCTGATGAATTAGAGATTTCGAGTAAACAAATTTTCCTAATCTTTCTGTTCAAGCGCCATCTAC”, the binding signal is 0.943 RPM ratio (pull-down/input).

In the case of “GATGATTGTTCTCCCAGCTGATGAATTGTCCTACTCGAGTAAACAAATTTTCCTAATCTTTCTGTTCAAGCGCCATCTAC”, the binding signal is 1 RPM ratio (pull-down/input).

For “GATGATTGTTCTCCCAGCTGATGAATTTACAAGCTCGAGTAAACAAATTTTCCTAATCTTTCTGTTCAAGCGCCATCTAC”, the binding signal is 1.25 RPM ratio (pull-down/input).

Regarding “GATGATTGTTCTCCCAGCTGATGAATTAAGGCGGTCGAGTAAACAAATTTTCCTAATCTTTCTGTTCAAGCGCCATCTAC”, the binding signal is 0.859 RPM ratio (pull-down/input).

Turning to “GATGATTGTTCTCCCAGCTGATGAATTTGGCGAGTCGAGTAAACAAATTTTCCTAATCTTTCTGTTCAAGCGCCATCTAC”, the binding signal is 0.827 RPM ratio (pull-down/input).

Take “GATGATTGTTCTCCCAGCTGATGAATTCGAAGCATCGAGTAAACAAATTTTCCTAATCTTTCTGTTCAAGCGCCATCTAC”: the binding signal was 1.05 RPM ratio (pull-down/input).

Take “GATGATTGTTCTCCCAGCTGATGAATTGTGCAAATCGAGTAAACAAATTTTCCTAATCTTTCTGTTCAAGCGCCATCTAC”: the binding signal was 1.25 RPM ratio (pull-down/input).

For the sequence “GATGATTGTTCTCCCAGCTGATGAATTCACTGGATCGAGTAAACAAATTTTCCTAATCTTTCTGTTCAAGCGCCATCTAC”, the binding signal is 0.843 RPM ratio (pull-down/input).

For “GATGATTGTTCTCCCAGCTGATGAATTCCTGTTATCGAGTAAACAAATTTTCCTAATCTTTCTGTTCAAGCGCCATCTAC”, the binding signal is 1.65 RPM ratio (pull-down/input).

Take “GATGATTGTTCTCCCAGCTGATGAATTGACATCATCGAGTAAACAAATTTTCCTAATCTTTCTGTTCAAGCGCCATCTAC”: the binding signal was 1.43 RPM ratio (pull-down/input).

With “GATGATTGTTCTCCCAGCTGATGAATTTTAGACGTCGAGTAAACAAATTTTCCTAATCTTTCTGTTCAAGCGCCATCTAC”, the binding signal was 0.944 RPM ratio (pull-down/input).

Take “GATGATTGTTCTCCCAGCTGATGAATTAATTTCTTCGAGTAAACAAATTTTCCTAATCTTTCTGTTCAAGCGCCATCTAC”: the binding signal is 0.986 RPM ratio (pull-down/input).

On to “GATGATTGTTCTCCCAGCTGATGAATTTCGCCAATCGAGTAAACAAATTTTCCTAATCTTTCTGTTCAAGCGCCATCTAC”, for which the binding signal is 1.01 RPM ratio (pull-down/input).

For the sequence “GATGATTGTTCTCCCAGCTGATGAATTACAAAGGTCGAGTAAACAAATTTTCCTAATCTTTCTGTTCAAGCGCCATCTAC”, the binding signal was 1.12 RPM ratio (pull-down/input).

As for “GATGATTGTTCTCCCAGCTGATGAATTTAGGGGGTCGAGTAAACAAATTTTCCTAATCTTTCTGTTCAAGCGCCATCTAC”, the binding signal was 0.799 RPM ratio (pull-down/input).

For “GATGATTGTTCTCCCAGCTGATGAATTTGACGCCTCGAGTAAACAAATTTTCCTAATCTTTCTGTTCAAGCGCCATCTAC”, the binding signal is 0.936 RPM ratio (pull-down/input).

On to “GATGATTGTTCTCCCAGCTGATGAATTGCAGCGCTCGAGTAAACAAATTTTCCTAATCTTTCTGTTCAAGCGCCATCTAC”, for which the binding signal is 0.997 RPM ratio (pull-down/input).
